# Source: the supplement of paper PMC8728848
# Some of the results follow.
# Legend:
# Assay in all cases: glycan array binding signal (z-score within array); higher = stronger binding
# Conditions in all cases: glycan notation: IUPAC condensed, linker removed
# [1] = biological target: Neu5Ac(a2-3)Gal(b1-3)GalNAc
# Procedure, shortened: (§1)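 Glycan array binding is given as a within-array Z-score, which can be read as non-binding when negative. The arrays, 3228 of them, came from the Consortium for Functional Glycomics database and were retained only where the protein sequence was available. Z-scores were averaged across arrays of the same protein sequence at different concentrations or buffers and across linkers.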
# [2] = biological target: Neu5Ac(a2-3)Gal(b1-3)GalNAc(b1-3)Gal(a1-4)Gal(b1-4)Glc
# Procedure, shortened: as §1
# [3] = biological target: Neu5Ac(a2-3)Gal(b1-3)GalNAc(b1-4)Gal(b1-4)Glc
# Procedure, shortened: as §1
# [4] = biological target: Neu5Ac(a2-3)Gal(b1-3)GalNAc(b1-4)[Neu5Ac(a2-3)]Gal(b1-4)Glc
# Procedure, shortened: as §1
# [5] = biological target: Neu5Ac(a2-3)Gal(b1-3)GalNAc(b1-4)[Neu5Ac(a2-8)Neu5Ac(a2-3)]Gal(b1-4)Glc
# Procedure, shortened: as §1
# [6] = biological target: Neu5Ac(a2-3)Gal(b1-3)GalNAc6S
# Procedure, shortened: as §1
# [7] = biological target: Neu5Ac(a2-3)Gal(b1-3)GlcNAc
# Procedure, shortened: as §1
# [8] = biological target: Neu5Ac(a2-3)Gal(b1-3)GlcNAc(b1-2)Man
# Procedure, shortened: as §1
# [9] = biological target: Neu5Ac(a2-3)Gal(b1-3)GlcNAc(b1-2)Man(a1-3)[GlcNAc(b1-4)][Neu5Ac(a2-3)Gal(b1-3)GlcNAc(b1-2)Man(a1-6)]Man(b1-4)GlcNAc(b1-4)GlcNAc
# Procedure, shortened: as §1
# [10] = biological target: Neu5Ac(a2-3)Gal(b1-3)GlcNAc(b1-2)Man(a1-3)[Neu5Ac(a2-3)Gal(b1-3)GlcNAc(b1-2)Man(a1-6)]Man(b1-4)GlcNAc(b1-4)GlcNAc
# Procedure, shortened: as §1
# [11] = biological target: Neu5Ac(a2-3)Gal(b1-3)GlcNAc(b1-2)[Neu5Ac(a2-3)Gal(b1-3)GlcNAc(b1-4)]Man(a1-6)[Neu5Ac(a2-3)Gal(b1-3)GlcNAc(b1-2)Man(a1-3)]Man(b1-4)GlcNAc(b1-4)GlcNAc
# Procedure, shortened: as §1
# [12] = biological target: Neu5Ac(a2-3)Gal(b1-3)GlcNAc(b1-3)Gal(b1-3)GlcNAc
# Procedure, shortened: as §1
# [13] = biological target: Neu5Ac(a2-3)Gal(b1-3)GlcNAc(b1-3)Gal(b1-4)GlcNAc
# Procedure, shortened: as §1
# [14] = biological target: Neu5Ac(a2-3)Gal(b1-3)GlcNAc(b1-3)GalNAc
# Procedure, shortened: as §1
# [15] = biological target: Neu5Ac(a2-3)Gal(b1-3)GlcNAc(b1-6)GalNAc
# Procedure, shortened: as §1
# [16] = biological target: Neu5Ac(a2-3)Gal(b1-3)GlcNAc6S
# Procedure, shortened: as §1
# [17] = biological target: Neu5Ac(a2-3)Gal(b1-3)[Fuc(a1-4)]GlcNAc
# Procedure, shortened: as §1
# [18] = biological target: Neu5Ac(a2-3)Gal(b1-3)[Fuc(a1-4)]GlcNAc(b1-3)Gal(b1-3)[Fuc(a1-4)]GlcNAc
# Procedure, shortened: as §1
# [19] = biological target: Neu5Ac(a2-3)Gal(b1-3)[Fuc(a1-4)]GlcNAc(b1-3)Gal(b1-4)[Fuc(a1-3)]GlcNAc
# Procedure, shortened: as §1
# [20] = biological target: Neu5Ac(a2-3)Gal(b1-3)[GlcNAc(b1-6)]GalNAc
# Procedure, shortened: as §1
# [21] = biological target: Neu5Ac(a2-3)Gal(b1-3)[Neu5Ac(a2-6)]GalNAc
# Procedure, shortened: as §1
# [22] = biological target: Neu5Ac(a2-3)Gal(b1-3)[Neu5Ac(a2-6)]GlcNAc(b1-3)[Fuc(a1-3)[Gal(b1-4)]GlcNAc(b1-6)]Gal(b1-4)Glc
# Procedure, shortened: as §1
# [23] = biological target: Neu5Ac(a2-3)Gal(b1-3)]Neu5Ac(a2-3)Gal(b1-4)]GlcNAc
# Procedure, shortened: as §1
# [24] = biological target: Neu5Ac(a2-3)Gal(b1-4)Glc
# Procedure, shortened: as §1
# [25] = biological target: Neu5Ac(a2-3)Gal(b1-4)GlcNAc
# Procedure, shortened: as §1
# [26] = biological target: Neu5Ac(a2-3)Gal(b1-4)GlcNAc(b1-2)Man
# Procedure, shortened: as §1
# [27] = biological target: Neu5Ac(a2-3)Gal(b1-4)GlcNAc(b1-2)Man(a1-3)[GlcNAc(b1-4)][Neu5Ac(a2-3)Gal(b1-4)GlcNAc(b1-2)Man(a1-6)]Man(b1-4)GlcNAc(b1-4)GlcNAc
# Procedure, shortened: as §1
# [28] = biological target: Neu5Ac(a2-3)Gal(b1-4)GlcNAc(b1-2)Man(a1-3)[Neu5Ac(a2-3)Gal(b1-4)GlcNAc(b1-2)Man(a1-6)]Man(b1-4)GlcNAc(b1-4)GlcNAc
# Procedure, shortened: as §1
# [29] = biological target: Neu5Ac(a2-3)Gal(b1-4)GlcNAc(b1-2)Man(a1-3)[Neu5Ac(a2-3)Gal(b1-4)GlcNAc(b1-2)Man(a1-6)]Man(b1-4)GlcNAc(b1-4)[Fuc(a1-6)]GlcNAc
# Procedure, shortened: as §1
# [30] = biological target: Neu5Ac(a2-3)Gal(b1-4)GlcNAc(b1-2)Man(a1-3)[Neu5Ac(a2-6)Gal(b1-4)GlcNAc(b1-2)Man(a1-6)]Man(b1-4)GlcNAc(b1-4)GlcNAc
# Procedure, shortened: as §1
# [31] = biological target: Neu5Ac(a2-3)Gal(b1-4)GlcNAc(b1-2)[Neu5Ac(a2-3)Gal(b1-4)GlcNAc(b1-4)]Man(a1-3)[GlcNAc(b1-4)][Neu5Ac(a2-3)Gal(b1-4)GlcNAc(b1-2)[Neu5Ac(a2-3)Gal(b1-4)GlcNAc(b1-6)]Man(a1-6)]Man(b1-4)GlcNAc(b1-4)GlcNAc
# Procedure, shortened: as §1
# [32] = biological target: Neu5Ac(a2-3)Gal(b1-4)GlcNAc(b1-2)[Neu5Ac(a2-3)Gal(b1-4)GlcNAc(b1-4)]Man(a1-3)[GlcNAc(b1-4)][Neu5Ac(a2-3)Gal(b1-4)GlcNAc(b1-4)Man(a1-6)]Man(b1-4)GlcNAc(b1-4)GlcNAc
# Procedure, shortened: as §1
# [33] = biological target: Neu5Ac(a2-3)Gal(b1-4)GlcNAc(b1-2)[Neu5Ac(a2-3)Gal(b1-4)GlcNAc(b1-6)]Man(a1-6)[Neu5Ac(a2-3)Gal(b1-4)GlcNAc(b1-2)Man(a1-3)][GlcNAc(b1-4)]Man(b1-4)GlcNAc(b1-4)GlcNAc
# Procedure, shortened: as §1
# [34] = biological target: Neu5Ac(a2-3)Gal(b1-4)GlcNAc(b1-3)Gal
# Procedure, shortened: as §1
# [35] = biological target: Neu5Ac(a2-3)Gal(b1-4)GlcNAc(b1-3)Gal(b1-3)GlcNAc
# Procedure, shortened: as §1
# [36] = biological target: Neu5Ac(a2-3)Gal(b1-4)GlcNAc(b1-3)Gal(b1-4)GlcNAc
# Procedure, shortened: as §1
# [37] = biological target: Neu5Ac(a2-3)Gal(b1-4)GlcNAc(b1-3)Gal(b1-4)GlcNAc(b1-2)Man(a1-3)[Neu5Ac(a2-3)Gal(b1-4)GlcNAc(b1-3)Gal(b1-4)GlcNAc(b1-2)Man(a1-6)]Man(b1-4)GlcNAc(b1-4)GlcNAc
# Procedure, shortened: as §1
binder,measurement,setting,value
ClecSol-Fc (Cryptosporidium parvum) (protein) CPEGWISNGEKTRCFKLVTFDRPRTFSHGFKACNDLGGTEVETRRRNGSKETNEYPVTLASVYKLSDEEAIRRTLVEQGDIHKTANGCFVGLRKYAFFRYPPGWYWIDSGSPVSVRDSEINWTSSYNASWLLRFKFPFEKCGFFDIGGLGRRPCWLIDSELSCAVCGTVAYDSGGLNPNKYSELIKQTDEIISKEPKLDLPGYNNLNCTDAWENNLSVGLCQNVSNILDSAWSSYQSSLNFPSINFNWKEDSTNEGGDQVYHNSYLDLPRYKQKKTFYWDQDPGTIPALSDEMKLIGLSAQPTYHPLDRSSSGSFESDSTESGRANEERNDTLEEMIYKQSSDSIEDILVPVTKPIFSDYSSIGRNSGVEEVYSSNVSTISSKGVVFPNTTTSSDNDFTKNNPANSSKHTSTSTTTNTTTTTTRTTTTTTTTTTTTTTTTTTTTETTTTKKSTTATKNTTTT,glycan array binding signal (z-score),[1],-0.168
same,glycan array binding signal (z-score),[2],-0.076
same,glycan array binding signal (z-score),[3],-0.148
same,glycan array binding signal (z-score),[4],-0.187
same,glycan array binding signal (z-score),[5],-0.152
same,glycan array binding signal (z-score),[6],-0.119
same,glycan array binding signal (z-score),[7],0.014
same,glycan array binding signal (z-score),[8],-0.101
same,glycan array binding signal (z-score),[9],0.101
same,glycan array binding signal (z-score),[10],0.094
same,glycan array binding signal (z-score),[11],-0.188
same,glycan array binding signal (z-score),[12],-0.133
same,glycan array binding signal (z-score),[13],-0.22
same,glycan array binding signal (z-score),[14],0.124
same,glycan array binding signal (z-score),[15],-0.123
same,glycan array binding signal (z-score),[16],-0.037
same,glycan array binding signal (z-score),[17],-0.003
same,glycan array binding signal (z-score),[18],0.221
same,glycan array binding signal (z-score),[19],-0.075
same,glycan array binding signal (z-score),[20],-0.17
same,glycan array binding signal (z-score),[21],-0.126
same,glycan array binding signal (z-score),[22],-0.212
same,glycan array binding signal (z-score),[23],0.116
same,glycan array binding signal (z-score),[24],-0.051
same,glycan array binding signal (z-score),[25],0.072
same,glycan array binding signal (z-score),[26],0.228
same,glycan array binding signal (z-score),[27],-0.175
same,glycan array binding signal (z-score),[28],-0.103
same,glycan array binding signal (z-score),[29],-0.084
same,glycan array binding signal (z-score),[30],0.029
same,glycan array binding signal (z-score),[31],-0.075
same,glycan array binding signal (z-score),[32],0.111
same,glycan array binding signal (z-score),[33],-0.149
same,glycan array binding signal (z-score),[34],0.259
same,glycan array binding signal (z-score),[35],-0.202
same,glycan array binding signal (z-score),[36],-0.059
same,glycan array binding signal (z-score),[37],-0.191
